According to publication PMC4336329 (PLoS ONE, 2015):
The whole screen tested about 310,000 compounds, of which about 2,200 (0.71%) showed an effect of 50% or more. The effect is printed as a negative number. The list shows a part of the results.

The molecules below were run against human ether-à-go-go-related gene (hERG) potassium channel (human, UniProt Q12809) (assay: primary screen, population patch clamp on CHO cells stably expressing hERG).
Chain of human ether-à-go-go-related gene (hERG) potassium channel (Q12809 whole entry, looked up): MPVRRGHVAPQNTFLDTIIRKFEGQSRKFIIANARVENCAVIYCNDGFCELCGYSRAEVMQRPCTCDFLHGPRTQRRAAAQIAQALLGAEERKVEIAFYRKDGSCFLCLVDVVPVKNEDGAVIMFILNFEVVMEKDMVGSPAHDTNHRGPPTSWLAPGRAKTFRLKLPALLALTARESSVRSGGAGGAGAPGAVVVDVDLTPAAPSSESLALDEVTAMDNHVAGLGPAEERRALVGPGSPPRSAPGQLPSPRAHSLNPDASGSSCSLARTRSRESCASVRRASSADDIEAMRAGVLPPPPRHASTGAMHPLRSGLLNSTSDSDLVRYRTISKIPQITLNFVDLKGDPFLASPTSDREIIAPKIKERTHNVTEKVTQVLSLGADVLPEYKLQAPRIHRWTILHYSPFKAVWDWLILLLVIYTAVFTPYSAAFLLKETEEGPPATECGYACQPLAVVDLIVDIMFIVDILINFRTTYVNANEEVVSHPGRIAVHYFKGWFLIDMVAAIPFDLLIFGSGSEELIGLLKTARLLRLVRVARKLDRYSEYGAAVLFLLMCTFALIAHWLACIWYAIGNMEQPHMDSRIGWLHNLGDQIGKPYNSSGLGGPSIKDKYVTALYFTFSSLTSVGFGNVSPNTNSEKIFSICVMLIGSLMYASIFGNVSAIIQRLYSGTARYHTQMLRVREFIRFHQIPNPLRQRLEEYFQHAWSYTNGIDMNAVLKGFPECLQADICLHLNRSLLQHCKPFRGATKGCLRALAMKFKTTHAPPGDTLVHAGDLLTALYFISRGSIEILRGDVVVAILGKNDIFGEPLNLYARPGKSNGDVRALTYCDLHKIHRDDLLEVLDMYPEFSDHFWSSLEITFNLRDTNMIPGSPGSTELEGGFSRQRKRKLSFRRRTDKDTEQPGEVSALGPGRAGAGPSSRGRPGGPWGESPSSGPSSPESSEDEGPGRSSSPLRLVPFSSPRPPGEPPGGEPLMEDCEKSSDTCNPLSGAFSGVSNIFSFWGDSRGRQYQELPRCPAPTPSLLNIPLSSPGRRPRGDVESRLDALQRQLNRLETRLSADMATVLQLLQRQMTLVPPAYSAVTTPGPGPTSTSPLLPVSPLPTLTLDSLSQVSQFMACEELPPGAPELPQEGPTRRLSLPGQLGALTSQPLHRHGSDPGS

In order of rising “hERG current change (%, negative = inhibition) at 1uM” value:
1. COc1cccc(CC2(CO)CCCN(Cc3ccc(OC)c(C)c3OC)C2)c1 (stereo not drawn)  -80.2%
2. Cc1ccc(S(=O)(=O)NCC(c2cccnc2)N2CCN(Cc3ccccc3)CC2)cc1 (stereo not drawn)  -39.6%
3. COc1ccccc1N1CCN(Cc2cccc(OC)c2O)CC1  -20.1%
4. CCOC(=O)c1cc2[nH]c3ccccc3c2[n+](-c2ccc([N+](=O)[O-])cc2)c1N.O=C([O-])C(F)(F)F  -13.8%
5. Cc1ccc(NC(=O)C2(c3ccc([N+](=O)[O-])cc3)CCCC2)cc1  -10.9%
6. O=C(NCCN1CCN(c2ccccc2)CC1)Nc1ccc(Cl)cc1  -10.3%
7. CCOCCCn1c(=NC(C)=O)c(C(=O)OCC)cc2c(=O)n3ccccc3nc21  -4.7%
8. CC(C)=CC1C(C(=O)NCCc2ccccc2)C1(C)C (stereo not drawn)  -3.43%
9. CCCc1cnc(N2CCN(C(=O)c3ccccc3)CC2)nc1  -3.08%
10. COC(=O)c1cccc(NC(=O)c2onc3c2CCCC3)c1  -2.85%
11. CC(OC(=O)CCCc1nc2ccccc2s1)C(=O)NC(N)=O (stereo not drawn)  -1.04%
12. CSC1=NSC2=NC(=O)/C(=C/c3coc4ccc(O)cc4c3=O)C(=N)N12  0.0483%
13. Cc1cc(C)c(CN2CCC(n3nccc3NC(=O)c3ccccc3Cl)CC2)cc1C  1.2%
14. CCOc1ccc(NC(=O)CN(C)C(=O)c2ccc(COc3ccccc3)o2)cc1OCC  1.43%
15. O=C(C[n+]1cccc(CO)c1)Nc1nc2ccccc2s1.[Cl-]  2.06%
16. O=S(=O)(N/N=C\c1cccc(F)c1)c1ccccc1  2.31%
17. CC1CCCCC12NC(=O)N(CC(=O)Nc1cccc(S(=O)(=O)N3CCCCC3)c1)C2=O (stereo not drawn)  3%
18. Cc1ccc2cc(C)c3nnc(SCC(=O)Nc4nc5c(s4)CCCC5)n3c2c1C  3.81%
19. O=C(Nc1cnn(Cc2c(Cl)cccc2Cl)c1)c1ccc([N+](=O)[O-])cc1  4.46%
20. CCCn1c(SCC(=O)NCCc2ccc(OC)c(OC)c2)nc2c1c(=O)n(C)c(=O)n2C  5.56%
21. CCn1c(Cc2cccs2)nnc1SCC(=O)c1ccc(C)cc1  5.59%
22. CCOC(=O)C1CCN(C(=O)Cn2nc(C)n3cccc3c2=O)CC1  5.78%
23. CCOc1ccc(NS(=O)(=O)c2ccc(C(=O)N(C)CCc3ccc(OC)c(OC)c3)cc2)cc1  6.82%
24. Cc1oc(-c2cccc(Br)c2)[n+]([O-])c1C  7.02%
25. Cl.c1ccc2c(N3CCCCC3)ncnc2c1  7.02%
26. CN(C)C(CNC(=O)c1oc2ccccc2c1CSc1ncn[nH]1)c1ccco1 (stereo not drawn)  7.13%
27. CCCc1cc(=O)[nH]c(SCC(=O)NCCC2=CCCCC2)n1  7.16%
28. COc1ccc(Cl)cc1-c1nc(-c2ccc(NC(=O)c3cccs3)cc2)no1  8.41%
29. CC(C)(C)c1ccc(C(=O)N/N=C/c2ccccn2)cc1  8.52%
30. CC1(C)CC2CC(C)(CN2C(=O)COC(=O)c2ccccc2C(F)(F)F)C1 (stereo not drawn)  8.67%
31. CCSc1nnc(NC(=O)C2CCCCC2C(=O)OCC(F)(F)C(F)F)s1 (stereo not drawn)  8.82%
32. CS(=O)(=O)N(CC(=O)NCCSCc1ccco1)c1ccc(Cl)cc1  9.33%
33. Cc1ccccc1N1CCN(C(=O)C2CCC(=O)N(C3CCCC3)C2)CC1 (stereo not drawn)  9.85%
34. C(=N\N1CCOCC1)/c1cccs1  10%
35. CCSc1cc(N2CCOCC2)nc(-c2ccccc2)n1  10.1%
36. COc1cccc(OC)c1C(=O)NC(C)c1ccccc1 (stereo not drawn)  10.5%
37. CCC(=O)Nc1ccc(C(=O)COC(=O)C(CCSC)NC(=O)COc2ccccc2)cc1 (stereo not drawn)  10.6%
38. N#CC1=C2Nc3ccccc3N2C(=O)NC1(c1ccccc1)C(F)(F)F (stereo not drawn)  10.9%
39. Cn1c(-c2ccco2)n[nH]c1=S  11.1%
40. COc1cccc(C2N(c3ccccc3)CCN2c2ccccc2)c1OC  11.3%
41. CCCCN1CC(O)=C(c2nc3ccccc3[nH]2)C1=N  11.4%
42. Cc1ccc(N=C2SCCCN2C(=O)c2ccco2)cc1Cl  11.5%
43. CN1C2c3ccccc3C3C4c5ccccc5C(C31)C(C2[N+](=O)[O-])N4C (stereo not drawn)  11.8%
44. O=CN1CCCN(Cc2nc(Cc3ccccc3F)no2)CC1  12.3%
45. CC(NC(=O)CCC(=O)Nc1ccccc1O)c1ccccc1 (stereo not drawn)  12.4%
46. CC(=O)NC(C)c1ccc(Cl)c(Cl)c1 (stereo not drawn)  12.6%
47. O=C(CCNS(=O)(=O)c1ccc(Cl)cc1)OCC(=O)N1CCN(C(=O)c2ccco2)CC1  13.2%
48. CCn1nc(C)c(/C=N/NC(=O)c2ccoc2C)c1C  13.2%
49. CCC(NC(=O)C1CCC1)c1ccccc1 (stereo not drawn)  13.6%
50. COc1ccccc1C(=O)Nc1nnc(S(=O)(=O)N(C)Cc2ccccc2)s1  14.5%
51. COc1ccc(-c2n[nH]c(=S)n2-c2ccccc2C)cc1  15.3%
52. COCCOC(=O)C1=C(C)NC(=O)NC1c1cccc2ccccc12 (stereo not drawn)  15.4%
53. COc1ccc(C2C(C(=O)c3ccco3)=C(O)C(=O)N2CC2CCCO2)cc1OC (stereo not drawn)  15.4%
54. Cc1cccc(NC(=O)Cn2cc(C=O)c3ccccc32)c1  15.7%
55. CN(CC(=O)Nc1ccccc1Cl)C(=O)COC(=O)/C=C/c1ccc(C(F)(F)F)cc1  16.2%
56. Cc1cc(C)c2nc(-c3cccc(Cl)c3)c(C)c(C(=O)N3CCOCC3)c2c1  16.4%
57. CC1CCCCN1C(=O)CCNC(=O)Cn1cnc2ccccc2c1=O (stereo not drawn)  16.5%
